Measurements taken from PubChem BioAssay AID504332 (National Center for Advancing Translational Sciences (NCATS), 2011).
Values joined by “and” are separate entries in the source; they are usually repeats but may differ in a detail not shown here. Equal entries are not always repeated. The campaign covered roughly 350,000 compounds. About 31,000 (8.9%) were called active. This list was built around the results that the source calls inconclusive (neither active nor inactive); the mix of calls is not that of the screen. Calls come from the whole dose curve; as a rule, active = well fitted inhibition curve with a large enough effect; inconclusive = small, poorly fitted or top-dose-only effect; inactive = no such curve, though single readings can be large or run the other way. Where the call is inconclusive, the potency comes from a doubtful curve fit. Where a structure was tested more than once in an assay, its records may differ in their call.

biological target: Histone-lysine N-methyltransferase EHMT2 (Homo sapiens) (UniProt Q96KQ7); test: qHTS Assay for Inhibitors of Histone Lysine Methyltransferase G9a; conditions: G9a H3K9 monomethylation, AlphaScreen, 2 h; activity, negative = inhibition: at 59 µM (top of the series) unless noted; note: nearly all actives have a fitted effect of over 75% in size
Chain of UniProt Q96KQ7 (Q96KQ7 whole entry, looked up): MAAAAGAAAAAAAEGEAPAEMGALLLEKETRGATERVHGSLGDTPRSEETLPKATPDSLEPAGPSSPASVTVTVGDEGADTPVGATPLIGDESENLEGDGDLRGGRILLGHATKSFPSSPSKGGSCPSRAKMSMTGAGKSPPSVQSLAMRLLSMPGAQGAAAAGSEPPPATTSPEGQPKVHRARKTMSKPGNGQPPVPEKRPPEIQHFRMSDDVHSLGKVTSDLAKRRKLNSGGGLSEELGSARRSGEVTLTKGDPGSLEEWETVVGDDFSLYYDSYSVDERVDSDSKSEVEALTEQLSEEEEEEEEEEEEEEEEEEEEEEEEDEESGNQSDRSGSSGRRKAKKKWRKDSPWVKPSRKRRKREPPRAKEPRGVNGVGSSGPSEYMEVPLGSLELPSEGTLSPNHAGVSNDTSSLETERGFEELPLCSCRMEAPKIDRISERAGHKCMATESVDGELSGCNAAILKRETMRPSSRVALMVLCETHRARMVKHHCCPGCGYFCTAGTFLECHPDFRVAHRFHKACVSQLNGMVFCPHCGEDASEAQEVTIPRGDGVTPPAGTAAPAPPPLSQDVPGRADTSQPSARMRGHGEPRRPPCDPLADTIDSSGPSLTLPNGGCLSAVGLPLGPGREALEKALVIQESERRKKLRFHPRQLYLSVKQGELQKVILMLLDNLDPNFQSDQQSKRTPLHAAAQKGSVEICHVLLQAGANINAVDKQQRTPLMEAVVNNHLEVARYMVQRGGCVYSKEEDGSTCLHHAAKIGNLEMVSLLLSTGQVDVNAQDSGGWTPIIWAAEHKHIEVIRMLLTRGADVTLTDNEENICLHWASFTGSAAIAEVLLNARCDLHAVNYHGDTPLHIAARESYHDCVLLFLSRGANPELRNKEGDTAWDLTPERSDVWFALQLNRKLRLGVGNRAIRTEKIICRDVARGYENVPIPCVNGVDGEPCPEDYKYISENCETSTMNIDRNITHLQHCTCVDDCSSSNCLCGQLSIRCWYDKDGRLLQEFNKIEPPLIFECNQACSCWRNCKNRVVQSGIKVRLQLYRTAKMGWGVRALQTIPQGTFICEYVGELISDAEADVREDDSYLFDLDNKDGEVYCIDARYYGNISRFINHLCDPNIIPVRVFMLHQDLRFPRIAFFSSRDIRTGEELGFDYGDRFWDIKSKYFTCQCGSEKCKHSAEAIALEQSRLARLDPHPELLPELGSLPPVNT
Method in brief: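 AlphaScreen detection with an anti-monomethyl H3K9 antibody quantified product after a 2 h room-temperature reaction containing 500 nM biotinylated H3K9 peptide, 20 µM SAM and 20 nM enzyme, which had been preincubated 15 min with compound.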
% is set by controls: 0 for no effect and ±100 for the full control effect; potency is the fitted concentration of half-maximal effect; tags give direction and shape of the fitted curve.

SMILES	Potency	activity, negative = inhibition
Cc1ccc(N2C(=O)[C@@H]3C(C(=O)CCN4C(=O)c5ccccc5C4=O)=NN[C@@H]3C2=O)cc1	inconclusive: 79.4 µM [inhibitor, single point]	–
CC1=C(C(=O)OCC(C)C)C(c2ccccc2Cl)NC(=O)N1C (stereo not given)	inconclusive: 89.1 µM [inhibitor, single point]	–
C/C(CCc1ccc2c(c1)OCO2)=N\N=C(/N)SC1CC(=O)N(c2ccccc2F)C1=O (stereo not given)	–	inactive: 33.5% [at 0.501 µM]
O=C(Nc1cccc(F)c1)c1ccc(-c2ccccc2Cl)o1	active: 56.2 µM	–
COc1ccc(CC(=O)Nc2ccc3nc(C)sc3c2)cc1OC	active: 20 µM	–
O=C(O)CC(Cn1[nH]nnc1=S)c1ccccc1 (stereo not given)	active: 8.91 µM	–
Cc1nc(=O)c(-c2ccccc2)c(C)n1-c1cccc(C(=O)O)c1	–	inactive: -16.5% [at 102 µM]
O=C(c1cc(O)c(O)c([N+](=O)[O-])c1)c1ccccc1F	inconclusive: 39.8 µM [inhibitor, partial curve] and inconclusive: 7.08 µM [inhibitor, full curve] and inconclusive: 23.8 µM [inhibitor, partial curve, poor fit]	–
O=S(=O)(N1CCCCCC1)N1CCN(S(=O)(=O)N2CCOCC2)CC1	inconclusive: 35.5 µM [inhibitor, partial curve, poor fit]	–
COc1ccc(NC(=O)Nc2ccc(N(C)C)cc2)cc1	active: 3.55 µM	–
COc1ccc(-c2ccc(/C=C3/C(=N)N4C=CSC4=NC3=O)o2)c([N+](=O)[O-])c1	inconclusive: 79.4 µM [inhibitor, single point]	–
NC(=O)C1CCN(c2nc(-c3ccccc3-c3ccccc3)cs2)CC1	–	inactive: -1.34% [at 12.7 µM]
CCOc1ccc(OCC)c(NC(=O)C2CCCN(c3nc(C)cc(C)n3)C2)c1 (stereo not given)	inconclusive: 70.8 µM [inhibitor, partial curve, poor fit]	–
CC1CCC(C(C)C)C(OC(=O)COC(=O)c2cc(O)ccc2N)C1 (stereo not given)	active: 10 µM	–
CCCCSC(=S)NC1CCS(=O)(=O)C1 (stereo not given)	inconclusive: 89.1 µM [inhibitor, single point]	–
O=C(/C=C/Nc1ccccc1F)c1cccs1	active: 31.6 µM	–
Nc1ccc(N2CCN(C(=O)c3ccco3)CC2)cc1	active: 20 µM	–
CCn1ncc(CNC(=O)CCCSc2nc(-c3ccco3)cc(C(F)(F)F)n2)c1C	active: 15.8 µM	–
Cn1nnnc1SCCNC(=O)C1CCC(=O)N(CCc2cccc(F)c2)C1 (stereo not given)	active: 0.158 µM	–
COc1cc(/C=C2/C(=N)N3C=CSC3=NC2=O)ccc1OCCCOc1ccccc1C	–	inactive: -13.5% [at 0.501 µM]
COc1cccc(N=Cc2nc(-c3ccccc3)oc2OC(C)=O)c1	active: 50.1 µM	–
CC1Cc2ccccc2N1Cc1nc2scc(-c3cccs3)c2c(=O)[nH]1 (stereo not given)	active: 44.7 µM	–
CC(NC(=O)c1ccco1)C1COc2ccccc2O1 (stereo not given)	active: 25.1 µM	–
COc1ccc(N2CCN(Cc3cc(=O)oc4cc(C)c(Cl)c(C)c34)CC2)cc1	–	inconclusive: -65.4% [inhibitor]

SMILES	Potency	activity, negative = inhibition
CC(C)C(C(=O)Nc1ccccc1)N1C(=O)c2ccccc2C1=O (stereo not given)	inconclusive: 2.82 µM [inhibitor, full curve]	–
CCC(C)NC(=O)CSc1nc2ccsc2c(=O)n1NC(=O)c1ccccc1 (stereo not given)	inconclusive: 70.8 µM [inhibitor, single point]	–
CC(NC(=O)COC(=O)c1ccc(Cl)cc1O)c1ccc(F)cc1 (stereo not given)	inconclusive: 50.1 µM [inhibitor, partial curve]	–
CCC(C)(C)NC(=O)CN(C(=O)c1csnn1)c1cccc2c1CCCC2	–	inactive: 40.6% [at 102 µM]
Cc1ccc(N2CCN(C(=O)Nc3cn(CC(C)C)c(=O)c4ccccc34)CC2)c(C)c1	inconclusive: 14.1 µM [inhibitor, partial curve, poor fit]	–
CS(=O)(=O)Nc1cccc(-c2cc(NCc3ccccc3)ncn2)c1	–	inactive: 2.89% [at 0.501 µM]
O=C(OCc1ccc([N+](=O)[O-])cc1)c1cc([N+](=O)[O-])ccc1N1CCOCC1	inconclusive: 35.5 µM [inhibitor, partial curve, poor fit]	–
CCc1c(C(C)S(=O)(=O)c2ccc(C)cc2)[nH]c(=O)n1-c1ccc(OC(F)(F)F)cc1 (stereo not given)	active: 10 µM	–
Nc1ccccc1Sc1cc(Cl)nnc1Cl	inconclusive: 79.4 µM [inhibitor, single point]	–
Cc1ccccc1NS(=O)(=O)c1ccc(NC(=O)CSCc2ccc(Br)cc2)cc1	–	inconclusive: -56.5% [inhibitor]
COc1cccc(CNC(=O)c2ccc(CN3CC(=O)N4CCCCC4C3=O)cc2)c1 (stereo not given)	–	inactive: -18.8%
CC1CCCC(C)N1S(=O)(=O)c1ccc(S(=O)(=O)NCc2ccccc2)cc1 (stereo not given)	inconclusive: 28.2 µM [inhibitor, single point]	–
CCn1c(C(=O)NCc2ccccc2)cc2sc(Cl)cc21	–	inactive: 3.63%
COC(=O)c1cc2oc3ccccc3c2n1CC(=O)Nc1ccc(C)cc1Cl	–	inactive: 0.525%
CC(NC(=O)COC(=O)c1ccccc1SCC(=O)N1CCCC1)c1ccccc1 (stereo not given)	inconclusive: 70.8 µM [inhibitor, single point]	–
Cc1cc(NC(=O)c2c(-c3c(F)cccc3Cl)noc2C)no1	inconclusive: 50.1 µM [inhibitor, partial curve, poor fit]	–
CCn1cnc2cc(NCc3ccccc3Cl)ccc21	active: 44.7 µM	–
CCc1nccn1CCC(=O)N1CCc2c([nH]c3ccccc23)C1CC(C)C (stereo not given)	inconclusive: 50.1 µM [inhibitor, single point]	–
COc1ccccc1NC(=O)N1CCOc2ccccc21	–	inactive: -32.2%
N#Cc1c(/N=C/C=C/c2ccccc2)sc2c1CCCC2	inconclusive: 10 µM [inhibitor, single point]	–
CCCOc1ccc(CNC(=O)CCC(=O)n2ncc3cc(C)ccc32)cc1	inconclusive: 89.1 µM [inhibitor, single point]	–
CN(CC(=O)Nc1ccc(Cl)cc1)Cc1cc(=O)n2ccsc2n1	–	inconclusive: -51.4% [inhibitor] [at 12.7 µM]
COc1ccc(CCNc2nc(N3CCOCC3)nc(N3CCOCC3)n2)cc1OC	inconclusive: 39.8 µM [inhibitor, partial curve, poor fit]	–
Nn1c(SCC(=O)NCC2CCCO2)nnc1-c1ccc(OC(F)F)cc1 (stereo not given)	–	inactive: -28.2% [at 102 µM]

SMILES	Potency	activity, negative = inhibition
CCOc1ccc(/C=C/c2nc(C#N)c(N3CCCCCC3)o2)cc1	inconclusive: 8.91 µM [inhibitor, partial curve, poor fit]	–
CCc1cccc(OCC(=O)Nc2cc(Cl)ccc2-n2cncn2)c1	–	inactive: 2.35% [at 12.7 µM]
CC(C)CNC(=O)c1ccccc1NC(=O)CN(c1ccc2c(c1)OCCO2)S(C)(=O)=O	inconclusive: 79.4 µM [inhibitor, single point]	–
CC(=O)C1=NN(c2ccccc2)C2(S1)S/C(=C\c1ccccc1)C(=O)N2c1ccccc1 (stereo not given)	inconclusive: 12.6 µM [inhibitor, partial curve, poor fit]	–
O=C(O)c1ccccc1Nc1ccc([N+](=O)[O-])cc1C(=O)O	active: 31.6 µM	–
O=C(O)CC1S/C(=N/N=C/c2ccc([N+](=O)[O-])cc2)N(c2ccc(O)cc2)C1=O (stereo not given)	inconclusive: 0.355 µM [inhibitor, full curve, poor fit]	–
CN(c1ccc(Cl)cc1)S(=O)(=O)c1nnc(NC(=O)c2ccco2)s1	inactive	–
COc1ccccc1C(=O)NC(=O)COC(=O)CNC(=O)c1ccc(Cl)c([N+](=O)[O-])c1	inconclusive: 56.2 µM [inhibitor, partial curve, poor fit]	–
CC(C)C(=O)NC(NC(=S)Nc1ccc(S(N)(=O)=O)cc1)C(Cl)(Cl)Cl (stereo not given)	active: 50.1 µM	–
CC(C)Cc1nnc(NC(=O)CC(=O)Nc2ccccc2C(=O)O)s1	inconclusive: 79.4 µM [inhibitor, partial curve, poor fit]	–
Cc1ccc(CNC(=O)C2CC(c3cccc([N+](=O)[O-])c3)=NO2)o1 (stereo not given)	–	inactive: 3.8%
O=C(c1cnn2c(C(F)(F)F)cc(-c3ccco3)nc12)N1CCCCCC1	inconclusive: 79.4 µM [inhibitor, partial curve, poor fit]	–
CC(=O)c1sc2nc(-c3cccs3)cc(C(F)(F)F)c2c1N	inconclusive: 3.98 µM [inhibitor, single point]	–
O=[N+]([O-])c1ccccc1/C=C/C=N/n1c(-c2ccc(Cl)cc2)n[nH]c1=S	active: 6.31 µM	–
CC(=O)C1=C(O)C(=O)N(CCCCCC(=O)O)C1c1ccc(N(C)C)cc1 (stereo not given)	inconclusive: 1.58 µM [inhibitor, full curve, poor fit]	–
COc1ccc(-n2ncc3c(=O)n(CC(=O)NC(C)C)cnc32)cc1	–	inactive: 18.9% [at 102 µM]
COc1cc(C(c2nnnn2C(C)(C)C)N2CCN(C)CC2)cc(OC)c1OC (stereo not given)	inconclusive: 89.1 µM [inhibitor, partial curve, poor fit]	–
CCCCN(C)CC(O)Cn1cc(/C=C/C(=O)c2ccc(OCC)cc2)c2ccccc21 (stereo not given)	active: 50.1 µM	–
O=C(c1ccc2nc(N3CCOCC3)sc2c1)N1CCCC1	inconclusive: 25.1 µM [inhibitor, partial curve, poor fit]	–
COc1ccc(N(CC(=O)NCc2ccco2)C(=O)CNS(=O)(=O)c2ccc(Cl)cc2)cc1	–	inactive: -1.51%
c1coc(-c2nnc(-c3ccco3)nn2)c1	active: 20 µM	–
O=c1[nH]c2ccc(NC(=S)Nc3ccccc3)cc2[nH]1	active: 44.7 µM	–
